# From PMC12040169 (PLOS Biology, 2025)
# The other results are listed elsewhere or left out.
# System: T1, C. trachomatis L2/434/Bu expressing GFP (CTL2-GFP)
# T1 construct: L2/434/Bu GFP intracellular growth in HeLa cells
# Parameters: species or system HeLa; C. trachomatis total inclusion area by high-content imaging, normalised to DMSO
# Details: total inclusion area; 28.5 h, 10 µM; inhibitor
# In short: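 After bulk GFP and resorufin fluorescence reads, cells were fixed, stained with Hoechst and imaged by high-content microscopy. Inclusion area and number (GFP) stood in for chlamydial growth, nuclei count (Hoechst) for host cell viability. MICs were derived as for the bulk readout.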
row,SMILES,% of control remaining
1,CN(C)CCC(c1ccccc1)n1cncc1-c1cnn(C)c1 (stereo not drawn) [CBK281742],109.118
2,c1ccc(Oc2ccc(Nc3cccc(-c4ccc5ccccc5c4)n3)cc2)cc1 [CBK037636],89.1916
3,COc1ccc(/N=c2/cc(C)[nH]c3ncnn23)cc1 [CBK287893],94.9659
4,CN(C)S(=O)(=O)c1ccc(Cl)c(C(=O)Nc2ccc(C(=O)O)cc2)c1 [CBK265728],125.887
5,COc1ccc(-c2noc([C@@H]3C[C@H](NS(=O)(=O)Cc4ccccc4)CN3C)n2)cc1 [CBK288863],117.139
6,CN(CCN1CCCCC1)C(=O)c1c2c(nn1C)CCCC2 [CBK281905],95.8197
7,COc1cccc(C(=O)Nc2cc(C)c3c(=O)oc4ccccc4c3n2)c1OC [CBK287437],119.133
8,CC(=O)Nc1cccc(-c2cncc(-c3ccc(O)cc3)n2)c1 [CBK123795],77.3545
9,CCn1cncc1C(=O)NCC1(c2ccccc2F)CCOCC1 [CBK281555],95.4563
10,c1csc(CCN2CCC3(CC2)OCCc2c3[nH]c3ccccc23)c1 [CBK040156],66.5372
11,COc1ccc(Nc2nc(N)nc(CSc3nncn3C)n2)cc1 [CBK266730],124.278
12,Cc1cccc(Oc2nc3c(C)cccn3c(=O)c2/C=C(\C#N)c2nc3ccccc3[nH]2)c1 [CBK266528],116.874
13,O=C(NCCC(=O)N1CCCCC1)c1cccc(OCc2cscn2)c1 [CBK306384],60.7522
14,Cc1nc(Nc2cccc(C3CCCN3C(=O)COc3ccc(F)cc3)n2)sc1C (stereo not drawn) [CBK286019],98.0558
15,O=C(c1ccccc1)N1CCCC(c2nccnc2-c2cccc(C(F)(F)F)c2)C1 (stereo not drawn) [CBK286218],96.0155
16,COc1ccc(S(=O)(=O)N2CCN(C)CC2)cn1 [CBK269511],73.4424
17,CC(C)c1noc(NCc2nnc3n2CCCCC3)n1 [CBK306352],52.7489
18,CC(C)(C)OC(=O)N1CCN(c2ccc(C(F)(F)F)c(Cl)n2)CC1 [CBK003030],56.6923
19,N=C1OC2CSCC2N1C(=O)Cc1ccc(F)cc1 (stereo not drawn) [CBK284515],76.0152
20,COc1ccc(N2C(=O)CC(NNC(=O)CNC(C)=O)C2=O)cc1 (stereo not drawn) [CBK267228],107.243
21,CC(C)N1CCCC(CNC(=O)c2cc(C3CCCCC3)no2)C1 (stereo not drawn) [CBK283294],91.236
22,CN1CCN(CCCCC2(C)SC(NC3CCCCCC3)=NC2=O)CC1 (stereo not drawn) [CBK113259],87.0311
23,Cc1c(NC(=O)c2cn3c4c(c(N5CCN(C)CC5)c(F)cc4c2=O)OCN3C)c(=O)n(-c2ccccc2)n1C [CBK263061],110.958
24,O=C1CCC(=O)N1CCOc1nccnc1OC1CCN(Cc2ccc([N+](=O)[O-])cc2)CC1 [CBK084343],93.498
25,O=C(O)c1cccc(N2C(=O)C3C(C2=O)C2(c4ccccc4)C(=O)C3(c3ccccc3)C(c3ccccc3)=C2c2ccccc2)c1 (stereo not drawn) [CBK262439],104.472
26,O=C(N1CCC(c2ccncc2)CC1)C1(c2ccccc2)CC1 [CBK285480],97.1098

row,SMILES,% of control remaining
1,C=CCn1c(Cc2csc(NC(=O)c3cccc(Cl)c3)n2)n[nH]c1=S [CBK295314],107.547
2,COc1ccccc1CN(C(=O)Nc1ccc(S(C)(=O)=O)cc1)C1CC1 [CBK305787],12.1181
3,CCCCc1nc(CS(=O)(=O)C(C)c2nc(C(C)C)no2)cs1 (stereo not drawn) [CBK305707],81.9555
4,CCOC(=O)C1CCCN(C(=O)Cn2ncc(Cl)c(Cl)c2=O)C1 (stereo not drawn) [CBK305573],8.692
5,CS(=O)(=O)c1cccc(-c2cnc(NCC3CC3)c(C(=O)Nc3ccc4c(c3)OCO4)c2)c1 [CBK076362],69.5786
6,O=C(c1ccco1)N1CCC(Cn2cncn2)(C2CCCCC2)CC1 [CBK136811],120.633
7,CCC(=O)Nc1ccc(-c2nc3ccccc3[nH]2)cc1 [CBK287561],86.5444
8,O=C(NCc1cccs1)c1cnoc1-c1ccc([N+](=O)[O-])cc1 [CBK153845],97.6476
9,Cc1[nH]c(=S)[nH]c(=O)c1Cc1cccc2ccccc12 [CBK115563],66.009
10,Cn1c(=O)c2c(nc(CN3CCCCC3)n2CCCc2ccccc2)n(C)c1=O [CBK269521],82.3809
11,O=C(O)CCC(=O)Nc1ccc(-c2nc3ccccc3o2)cc1 [CBK261330],82.8933
12,O=C(c1cccs1)N1CCCN(Cc2cn3ccccc3n2)CC1 [CBK305304],27.1452
13,Fc1cccc(-c2nc3cnccn3c2NCc2cccs2)c1 [CBK282363],107.891
14,CC(C)(C)OC(=O)N1CCC2(CC1)NC(=O)c1cc(-c3cccc(S(C)(=O)=O)c3)ccc1O2 [CBK131967],74.5857
15,NC1=NN2C(=C(c3ccc(O)c(C(=O)O)c3)NN2c2ccccc2)N1 [CBK025631],95.016
16,O=S(=O)(Nc1ccc2[nH]ncc2c1)c1ccc(Oc2ccccc2)cc1 [CBK062522],74.5054
17,Cc1cc(-n2cccn2)ccc1CN1CCCCC1CN1CCOCC1 (stereo not drawn) [CBK307442],81.1762
18,N#Cc1ccc(CSc2cccc(F)c2)cc1 [CBK002918],74.5336
19,O=c1[nH][nH]c2nc(O)cc(C(F)(F)F)c12 [CBK027081],65.8146
20,O=C(c1nccs1)C1CCN(C(=O)CC2CCCC2)CC1 [CBK284207],82.0015
21,O=C(c1ccc(F)cc1)C1CCN(CC(O)COc2cccc3c2CCCC3)CC1 (stereo not drawn) [CBK003583],93.0149
22,Cc1ccc(-c2n[nH]c(=S)n2CCC(=O)NCc2ccc(-c3csc(C)n3)s2)cc1 [CBK297924],102.036
23,CSc1ncc(Cl)c(C(=O)NCCc2ccc(S(N)(=O)=O)cc2)n1 [CBK268679],102.976
24,CCc1ccc(CNC(=O)Cn2nnc(-c3ccc(CNC4CCC4)cc3)n2)cc1 [CBK155006T],127.146
25,Cc1ccccc1NC(=O)CC(C(=O)O)N1CCOCC1 (stereo not drawn) [CBK266969],103.948
26,Cc1nc(C)c(CC(=O)Nc2cccc(CN3CCCC3)c2)s1 [CBK281426],92.638

row,SMILES,% of control remaining
1,CCN1C(=O)C2(CC(=O)N(CC3CCCCC3)C2=O)c2cc(C)ccc21 (stereo not drawn) [CBK075216],106.198
2,CC(C)C1c2cccn2CCN1S(=O)(=O)c1ccc2[nH]c(=O)[nH]c(=O)c2c1 (stereo not drawn) [CBK286391],65.3918
3,O=C(Nc1cccnc1)c1cc2cc(OC(F)(F)F)ccc2[nH]1 [CBK107313],97.4642
4,O=C(c1cccs1)N1C[C@H](c2ccc(F)cc2)[C@H]2CN(Cc3ccccc3)CC[C@H]21 [CBK285544],46.7013
5,CN1CCN(c2nc(-c3ccccc3CO)cn3ccnc23)CC1 [CBK066347],56.5015
6,Cc1cc(C[C@@H]2CCC[C@H]2NCc2c(C)nn(C(C)C)c2C)on1 [CBK285453],77.4197
7,COc1ccc(F)c(CN(CC(C)(C)CN)C(=O)Nc2ccccc2C(C)(C)C)c1 [CBK002478C],39.729
8,c1ccc2c(N3CCCCC3)cnnc2c1 [CBK066897],73.6193
9,Cc1c(Cl)c(C(F)(F)F)nn1CCCNC(=S)Nc1ccc(S(N)(=O)=O)cc1 [CBK267113],89.7773
10,CCOC(=O)C1CCCN(CCC(=O)Nc2cc(C)ccc2C)C1 (stereo not drawn) [CBK264287C],118.698
11,Cc1n[nH]c(-c2ccccc2NS(=O)(=O)c2cnn(C(C)C)c2)n1 [CBK306377],80.3062
12,COC(=O)[C@@H]1Cc2ncn(C)c2CN1S(=O)(=O)c1cccs1 [CBK288992],86.809
13,CC(C)Nc1cncc(SCCN(C)C)n1 [CBK105292],101.167
14,C#CCNC(=O)C1CCN(c2nc3ccccc3n2C)CC1 [CBK283956],80.661
15,O=C(NCCc1cccnc1)C1CCCN(c2nc3c(-c4ccccc4)csc3c(=O)[nH]2)C1 (stereo not drawn) [CBK215495],91.9156
16,Cc1ccc(C)c(NC(=O)C(Cc2ccccc2)N2C(=O)c3cc(Cl)c(Cl)cc3C2=O)c1 (stereo not drawn) [CBK264232],97.7744
17,Cc1cc(NS(=O)(=O)c2ccc(Br)cc2C(F)(F)F)n(C)n1 [CBK067255],93.5834
18,COc1cccc(NC(=O)C2CN(S(=O)(=O)c3ccccc3)CCN2S(=O)(=O)c2ccccc2)c1 (stereo not drawn) [CBK262694],102.288
19,Cc1ccc(C(=O)NNC(=O)/C=C\C(=O)O)cc1 [CBK261842],102.951
20,COc1cccc(OCC(O)CN(C)S(=O)(=O)O)c1 (stereo not drawn) [CBK027121N],111.721
21,O=C(O)c1ccc2c(c1)C(=O)N(C1=NCCS1)C2=O [CBK021809],115.831
22,O=S(=O)(Nc1cccc(-c2cnco2)c1)c1ccc(Br)cc1C(F)(F)F [CBK067118],102.884
23,Cc1noc(C)c1S(=O)(=O)Nc1ccccc1C(=O)O [CBK042371],87.0994
24,CC(=O)c1c(C(C)=O)c(C)n(-c2ccc(C(=O)O)cc2)c1C [CBK287036],76.3343
25,O=C(c1[nH]c2ccccc2c1NS(=O)(=O)Cc1ccccc1[N+](=O)[O-])N1CCOCC1 [CBK050079],99.2127
26,Cc1ccccc1-c1ccc(C(=O)NC2CCCCC2)c(NCc2cccnc2)n1 [CBK076159],90.9505
